Results published in paper PMC11995724, “Antibiotic target discovery by integrated phenotypic and activity-based profiling of electrophilic fragments” (Cell chemical biology, 2025).
The campaign covered roughly 3,200 compounds. About 110 (3.4%) showed an effect of 50% or more. This is one part of the list.

System: T1, V. cholerae SAD30
T1 construct: SAD30
Set-up: species or system S. aureus MSSA476 (TSB) or V. cholerae SAD30 (LB); 384-well bacterial growth screen at 25 uM, OD600 relative to DMSO control
Conditions: relative growth, OD600, LB; 25 µM; inhibitor

Compound	% of control remaining [%]
C=CC(=O)N1CCC(C(=O)N[C@H]2CCOc3c(F)cccc32)CC1 [3-F12, N-[(4S)-8-fluoro-3,4-dihydro-2H-1-benzopyran-4-yl]-1-(prop-2-enoyl)piperidine-4-carboxamide]	97.2064
C=CC(=O)NCc1cn(C)c2ccccc12 [1-G21, N-[(1-methyl-1H-indol-3-yl)methyl]prop-2-enamide]	92.6756
CCCCNC(=O)C(C#N)=Cc1ccncc1 [8-P17, N-butyl-2-cyano-3-(pyridin-4-yl)prop-2-enamide]	82.3249
CC(Cl)C(=O)Nc1ccc(NC(=O)c2cccs2)cc1 (stereo not drawn) [6-G07, N-[4-(2-chloropropanamido)phenyl]thiophene-2-carboxamide]	83.8752
Cc1cc(C)cc(OCCN(C)C(=O)CCl)c1 [6-F03, 2-chloro-N-[2-(3,5-dimethylphenoxy)ethyl]-N-methylacetamide]	83.4202
O=C(CCl)Cc1ccc(C(F)(F)F)cc1 [10-C19, 1-chloro-3-[4-(trifluoromethyl)phenyl]propan-2-one]	79.6415
CC(=O)c1cccc(S(=O)(=O)N2CCN(C(=O)CCl)CC2)c1 [4-F05, 1-[4-(3-acetylbenzenesulfonyl)piperazin-1-yl]-2-chloroethan-1-one]	103.515
C=CC(=O)N1CCN(c2nc(CC)ns2)CC1 [1-J20, 1-[4-(3-ethyl-1,2,4-thiadiazol-5-yl)piperazin-1-yl]prop-2-en-1-one]	102.306
N#CC(=Cc1cccs1)C(=O)Nc1ccc(C(=O)O)cc1 [8-A04, 4-[2-cyano-3-(thiophen-2-yl)prop-2-enamido]benzoic acid]	94.9694
Cc1ccc(CN(Cc2c(C)noc2C)C(=O)CCl)c(C)c1 [5-N03, 2-chloro-N-[(3,5-dimethyl-1,2-oxazol-4-yl)methyl]-N-[(2,4-dimethylphenyl)methyl]acetamide]	109.951
O=C(CCl)NCCOc1cccc(F)c1 [6-G03, 2-chloro-N-[2-(3-fluorophenoxy)ethyl]acetamide]	108.75
COc1cccc(NC(=O)C(C#N)=Cc2csnn2)c1 [8-K04, 2-cyano-N-(3-methoxyphenyl)-3-(1,2,3-thiadiazol-4-yl)prop-2-enamide]	81.5092
O=C(CCl)NCC1CCCN(C(=O)C(F)(F)F)C1 (stereo not drawn) [7-N18, 2-chloro-N-{[1-(2,2,2-trifluoroacetyl)piperidin-3-yl]methyl}acetamide]	84.0575
Cl.O=C(CCl)NC1c2ccccc2CCC1n1ccnc1 (stereo not drawn) [7-N14, 2-chloro-N-[2-(1H-imidazol-1-yl)-1,2,3,4-tetrahydronaphthalen-1-yl]acetamide hydrochloride]	80.3568
O=C(CCl)c1cn(-c2ccc(F)cc2)nn1 [10-F05]	0.6234
Cc1oc(C(N)=O)cc1C(=O)CCl [10-M05, 4-(2-chloroacetyl)-5-methylfuran-2-carboxamide]	20.4169
N#CC(=Cc1ccc(O)cc1)C(=O)NCc1ccco1 [9-N10, 2-cyano-N-[(furan-2-yl)methyl]-3-(4-hydroxyphenyl)prop-2-enamide]	90.3467
CC(Cl)C(=O)NC1CCCCCC1 (stereo not drawn) [5-O21, 2-chloro-N-cycloheptylpropanamide]	100.704
CCN(Cc1cccs1)C(=O)CCl [5-F07, 2-chloro-N-ethyl-N-[(thiophen-2-yl)methyl]acetamide]	97.1735
C=CC(=O)NCc1ccc(C(=O)N2CCNC(=O)CC2)cc1 [3-I04, N-{[4-(5-oxo-1,4-diazepane-1-carbonyl)phenyl]methyl}prop-2-enamide]	102.676
COc1ccc(NC(=O)C(C#N)=Cc2cccc(Cl)c2Cl)cc1 [8-N04, 2-cyano-3-(2,3-dichlorophenyl)-N-(4-methoxyphenyl)prop-2-enamide]	74.7111
COc1cc(CN(C(=O)CCl)C2CCCOC2)ccc1C (stereo not drawn) [5-E12, 2-chloro-N-[(3-methoxy-4-methylphenyl)methyl]-N-(oxan-3-yl)acetamide]	97.3416
N#CC(=Cc1c[nH]c2ccccc12)C(=O)Nc1cccc2ncccc12 [9-N08, 2-cyano-3-(1H-indol-3-yl)-N-(quinolin-5-yl)prop-2-enamide]	87.3555
CC(Cl)C(=O)Nc1c(C(C)C)cccc1C(C)C (stereo not drawn) [4-B15, N-[2,6-bis(propan-2-yl)phenyl]-2-chloropropanamide]	91.4384
N#CC(=Cc1cnn(-c2ccc(Cl)cc2)c1)C(=O)NC1CCCC1 [8-M10, 3-[1-(4-chlorophenyl)-1H-pyrazol-4-yl]-2-cyano-N-cyclopentylprop-2-enamide]	74.3032
C=CC(=O)NC(CO)c1cccc(OC)c1 (stereo not drawn) [2-E22, N-[2-hydroxy-1-(3-methoxyphenyl)ethyl]prop-2-enamide]	111.657
C=CC(=O)Nc1ccc(C(C)CC(N)=O)cc1 (stereo not drawn) [1-I16, 3-[4-(prop-2-enamido)phenyl]butanamide]	92.6756
C=CC(=O)N1CCC(c2ccc(OC)c(F)c2)C1 (stereo not drawn) [3-K19, 1-[3-(3-fluoro-4-methoxyphenyl)pyrrolidin-1-yl]prop-2-en-1-one]	86.6201
Cc1csc(COC2CCN(C(=O)CCl)C2)n1 (stereo not drawn) [5-M08, 2-chloro-1-{3-[(4-methyl-1,3-thiazol-2-yl)methoxy]pyrrolidin-1-yl}ethan-1-one]	88.2631
C=CC(=O)N1CCCC1Cn1c(C)nc2ccccc21 (stereo not drawn) [1-J05, 1-{2-[(2-methyl-1H-1,3-benzodiazol-1-yl)methyl]pyrrolidin-1-yl}prop-2-en-1-one]	88.9387
